Reference: PubChem BioAssay AID652104 (National Center for Advancing Translational Sciences (NCATS), 2013)
In all, about 410,000 compounds went through this assay and about 7,200 (1.8%) were called active. Inconclusive results, whose numbers are uncertain, are shown with a selection of clear calls. The call rests on the fitted dose curve; in most records, active means well fitted activation curve with a large enough effect; inconclusive means small, poorly fitted or top-dose-only effect, or another doubt; inactive means no such curve, though single readings can be large or run the other way. No potency is given beside an inconclusive call; the fits are too rough.

assay: qHTS of TDP-43 Inhibitors; settings: TDP-43 expressing yeast growth rescue, BacTiter-Glo, 24 h; growth rescue (activation): at 46.1 µM (top of the series) unless noted; further: nearly all actives have a fitted effect of over 50% in size; on growth rescue (activation): % of control where 0% means no effect
Summary of the method: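 Luminescence from BacTiter-Glo reports growth of TDP-43-expressing yeast after 24 hr at 30 deg C with compound. Cells were raffinose-pregrown to mid-log, then seeded in galactose medium at OD600=0.02.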
Potency means the concentration at half of the fitted maximal effect; tags describe the fitted curve by direction and shape.

| Structure (SMILES) | Potency | growth rescue (activation) |
| --- | --- | --- |
| Cc1cc(C)c(S(=O)(=O)NCC(c2ccco2)S(=O)(=O)c2ccccc2)c(C)c1 (stereo not given) | inactive |  |
| CCN(CC)C(=O)C[n+]1ccc(C(N)=O)cc1 | inactive |  |
| Cc1nc2ccccc2n1/N=C/c1ccc([N+](=O)[O-])o1 |  | inconclusive: -92.3% [activator] |
| COc1cccc(C(O)c2ncc(-c3cccc(C(F)(F)F)c3)[nH]2)c1 (stereo not given) | inconclusive [activator, single point] |  |
| O=C(O)c1ccccc1Cc1ccc(F)c2ccccc12 | inconclusive [activator, partial curve] |  |
| CNc1snc(C)c1C(=O)OCC(=O)c1ccc(OC)c(F)c1 | inconclusive [activator, partial curve] |  |
| COc1ccc(-c2cc(C(F)F)n3ncc(C(=O)N4CCN(C)CC4)c3n2)cc1 | inactive |  |
| Cc1ccccc1CNC(=O)CCCC(=O)n1nc(C)c2ccccc21 | inconclusive [activator, single point] |  |
| CCc1ccc2c(c1)c(=O)c(S(=O)(=O)c1ccc(F)cc1)cn2CC(=O)Nc1ccccc1OC | inactive |  |
| c1ccc(CCn2nnnc2CN2CCc3ccccc32)cc1 | inconclusive [activator, partial curve] |  |
| O=C(CC(NC(=O)c1ccccc1Cl)c1ccccc1)NCCc1ccc(Cl)cc1 (stereo not given) | inactive |  |
| COc1cccc(/C=N/NC(=O)c2c(C)nc3ccc(Cl)cn23)c1OC | inconclusive [activator, partial curve, poor fit] |  |
| COC(=O)c1ccc(COC(=O)CNC(=O)CNC(=O)c2ccc(C)cc2)cc1 | inconclusive [activator, partial curve] |  |
| NC(=S)Nc1cc2ccccc2c2ccccc12 | active: 22.4 µM |  |
| CCc1ccc(N=Nc2ccc(O)c3[nH]cnc23)cc1 | inconclusive [activator, partial curve] |  |
| COc1cccc(CNc2nc3cc(-c4cccc(C(F)(F)F)c4)sc3c(=O)n2C)c1 | inconclusive [activator, full curve] |  |
| O=C(CSc1nc2ccccc2c(=O)n1CC1CCCO1)Nc1ccccc1Cl (stereo not given) | inconclusive [activator, partial curve, poor fit] |  |
| Cc1nc2nc(CNC(=O)OC(C)(C)C)nn2c(C)c1CCC(=O)NCc1ccccc1Cl | inactive |  |
| COc1cc(/C=N/O)cc(Cl)c1OC | inconclusive [activator, partial curve] |  |
| COC(=O)c1ccccc1NC(=O)Cn1c(=O)oc2ccc(Cl)cc21 | inconclusive [activator, single point] |  |
| Cc1nc(CC(=O)Nc2ccc(C(N)=O)cc2)cs1 | inactive |  |
| CC1(C(=O)NS(=O)(=O)C2CC2)CCCN(C(=O)c2ccco2)C1 (stereo not given) | inactive |  |
| O=C(CCN1C(=O)c2ccccc2S1(=O)=O)NCc1ccccc1Cl | inactive |  |
| CCOc1ccccc1CNC(=O)CCc1cn(C)c2ccccc12 | inconclusive [activator, partial curve] |  |
| CC(C(=O)NCc1ccccc1)n1ccc2cc(S(=O)(=O)N3CCCC3)ccc21 (stereo not given) | inactive |  |

| Structure (SMILES) | Potency | growth rescue (activation) |
| --- | --- | --- |
| CCCC12CN3CC(CCC)(CN(C1)C3c1c[nH]c3ccc(OC)cc13)C2=O (stereo not given) | inactive |  |
| COc1cccc(OC)c1OC(=O)c1ccccc1 | inactive |  |
| Cc1ccc(C(=O)NCc2ccc(Cl)cc2)cc1S(=O)(=O)N1CCCCC1 | inconclusive [activator, partial curve] |  |
| O=C(Nc1ccc(Cl)cc1)c1ccc2c(c1)N(Cc1ccccc1)CCS2 | inactive |  |
| COc1cc2c(cc1OC)CN(C(=O)COc1ccccc1C#N)CC2 |  | inconclusive: 40% [activator] |
| O=S(=O)(c1cccc(F)c1)N1CCCN(c2ccc(C(F)(F)F)cn2)CC1 | inconclusive [activator, partial curve] |  |
| COc1cccc(-n2c(C)nc3c(cnn3-c3ccc(C)c(C)c3)c2=O)c1 | active: 22.4 µM |  |
| O=C(/C=C/c1ccc2c(c1)OCCO2)c1ccccc1 | active: 15.8 µM |  |
| Cc1ccc(O)c(C(=O)CC(=O)c2cccc(F)c2)c1 | inactive |  |
| Cc1ccc2oc(=O)c3cnn(CC(=O)N4CCc5ccccc5C4)c3c2c1 | inconclusive [activator, single point] |  |
| O=C(Nc1nc2ccc(S(=O)(=O)N3CCCCC3)cc2s1)C1CCCO1 (stereo not given) | inconclusive [activator, single point] |  |
| COCCNC(=O)/C(C#N)=C/c1cc(C)n(C2CCCCC2)c1C | inconclusive [activator, partial curve] |  |
| CCn1c2ccccc2c2cc(Nc3cc(C)nc4ncnn34)ccc21 | active: 15.8 µM |  |
| Cc1nc(-c2ccccn2)nc(SCC(=O)c2ccccc2)c1Cl | active: 17.8 µM |  |
| Cc1ccc(C(=O)CC2(O)C(=O)N(CCc3ccccc3)c3ccc(Br)cc32)cc1 (stereo not given) | active: 35.5 µM |  |
| O=S(=O)(NCCC1=CCCCC1)c1cccc(Br)c1 | inconclusive [activator, single point] |  |
| Cc1ccc2scc(N3CCCC(C)C3)c(=O)c2c1 (stereo not given) | inconclusive [activator, full curve] |  |
| Cc1ccc(S(=O)(=O)N(C)C)cc1NC(=O)CCNC(=O)c1ccco1 | inactive |  |
| CCCn1c(=N)c(C(=O)NC(C)c2ccccc2)cc2c(=O)n3ccccc3nc21 (stereo not given) | inactive |  |
| O=C(COc1ccc2c(c1)CCC2)NCc1ccc(Cl)cc1 | inconclusive [activator, partial curve] |  |
| COc1ccc(C)cc1NC(=O)C1CC1c1ccccc1 (stereo not given) | active: 15.8 µM |  |
| Cc1ccc(N(Cc2ccc([N+](=O)[O-])cc2)C(=O)c2ccco2)cc1 | inconclusive [activator, single point] |  |
| Cc1cc(C)cc(NC(=O)c2ccc(S(=O)(=O)C(F)F)cc2)c1 | inconclusive [activator, single point] |  |
| Cc1nn(CC(=O)N2CCc3ccccc3C2)c(C)c1Cl | inactive |  |
| Cc1cc(-c2n[nH]c(=S)n2/N=C/c2ccc(Br)s2)n[nH]1 | inconclusive [activator, partial curve] |  |

| Structure (SMILES) | Potency | growth rescue (activation) |
| --- | --- | --- |
| Cc1ccc(C(=O)NC(C)c2ccc(C)c(C)c2)s1 (stereo not given) | inactive |  |
| Cc1sc(N/N=C/C=C/c2ccccc2)nc1-c1ccccc1 | inconclusive [activator, partial curve] |  |
| CCOc1ccc(NC(=O)COc2ccc(C(=O)NCc3cccnc3)cc2OC)cc1 | inconclusive [activator, full curve] |  |
| CC(C)(C)CC(=O)Nc1ccc(Nc2ccccc2)cc1 | inactive |  |
| O=c1c2cccc3c2c(nn1CN1CCOCC1)-c1ccccc1-3 | inconclusive [activator, partial curve] |  |
| COC(=O)c1cc(OC)c(OC)cc1NCC(=O)Nc1cccc(C(F)(F)F)c1 | inconclusive [activator, single point] |  |
| COc1cccc(C(NC(C)=O)c2nc(-c3cc4ccccc4o3)cs2)c1 (stereo not given) | inconclusive [activator, partial curve, poor fit] |  |
| Cc1ccc(-n2nnnc2SCC(=O)NCCC2=CCCCC2)c(C)c1 | inconclusive [activator, single point] |  |
| O=C(c1cccs1)N1C[C@@H](O)[C@H](n2cc(C3CC3)nn2)C[C@@H]1c1ccc(Cl)cc1 | inconclusive [activator, full curve] |  |
| COc1ccccc1C(=O)OCc1cc(=O)n2c(C)csc2n1 | active: 35.5 µM |  |
| COc1ccc(S(=O)(=O)N2Cc3ccccc3CC2C(=O)O)cc1OC (stereo not given) | inconclusive [activator, full curve, poor fit] |  |
| Cc1ccc(-c2nc(-c3ccncc3)no2)cc1 | inconclusive [activator, partial curve] |  |
| COc1ccc(C(C)(O)c2nc(-c3ccc4ccccc4c3)cs2)cc1 (stereo not given) | inconclusive [activator, single point] |  |
| COC(=O)N/N=C/c1cc(Br)ccc1O | inactive |  |
| CC(C)C(=O)OCC(=O)Nc1ccc(N=Nc2ccccc2)cc1 | inconclusive [activator, partial curve, poor fit] |  |
| COc1ccc(/C=C/C(=O)N2CCN(c3ccccn3)CC2)c2ccccc12 | inconclusive [activator, single point] |  |
| CC(C)OCP(=O)(c1ccccc1)c1ccccc1 | inconclusive [activator, partial curve] |  |
| Cn1cc(CC(=O)N2CCN(c3ccccc3F)CC2)c2ccccc21 | inconclusive [activator, partial curve] |  |
| CCOc1ccc(C2=CC(c3cccc(Br)c3)n3c(nc4ccccc43)N2)cc1Cl (stereo not given) | active: 12.6 µM |  |
| Cc1ccc(OCC(=O)NC2CCCc3ccccc32)c(C)c1 (stereo not given) | inconclusive [activator, partial curve] |  |
| CCOc1ccccc1NC(=O)c1cnccn1 | active: 11.2 µM |  |
| O=C(Oc1cccc(C(=S)N2CCOCC2)c1)c1ccccc1 | inconclusive [activator, single point] |  |
| CC(NC(=O)c1ccc(C#N)cc1)C1CC2CCC1C2 (stereo not given) | inconclusive [activator, single point] |  |
| CC12CCC(c3c1nc1ccccc1[n+]3[O-])C2(C)C (stereo not given) | inconclusive [activator, partial curve] |  |
| Cc1cccc(C(=O)NC(=S)N2CCN(C(=S)NC(=O)c3cccc(C)c3)CC2)c1 | inconclusive [activator, partial curve] |  |
